Experimental findings from the supplement of paper PMC8728848 are described below.

Common to all, as to experiment: glycan array binding signal (z-score within array); higher = stronger binding
Conditions in all cases: glycan notation: IUPAC condensed, linker removed

Test [1] deals with Gal(b1-3)GalNAc(a1-3)[Fuc(a1-2)]Gal(b1-4)Glc. In short, it runs like this: (§1)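 Glycan array data came from 3228 arrays in the Consortium for Functional Glycomics database, and only arrays with an available protein sequence were kept. Glycan names were put into IUPAC-condensed notation, and columns mapping to the same glycan were averaged. The binding signal is a within-array Z-score, averaged across arrays of one protein sequence run at different concentrations or buffers and across linkers. A negative Z-score can be read as non-binding.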

The target in test [2] is Gal(b1-3)GalNAc(a1-3)[Fuc(a1-2)]Gal(b1-4)GlcNAc. The gist of the method:
as §1

The target of a further test is Gal(b1-3)GalNAc(b1-3)Gal. In short, it runs like this: as §1
For test [3], the target named is Gal(b1-3)GalNAc(b1-3)Gal(a1-4)Gal(b1-4)Glc. The gist of the method: as §1
Test [4] has as its target Gal(b1-3)GalNAc(b1-4)Gal(b1-4)Glc. The gist of the method: as §1
Test [5] concerns the target Gal(b1-3)GalNAc(b1-4)[Neu5Ac(a2-3)]Gal(b1-4)Glc. The gist of the method: as §1
Another test concerns the target Gal(b1-3)GlcNAc. The gist of the method: as §1
Test [6] deals with Gal(b1-3)GlcNAc(a1-3)Gal(b1-4)GlcNAc. The gist of the method:
as §1

Test [7] concerns the target Gal(b1-3)GlcNAc(a1-6)Gal(b1-4)GlcNAc. The gist of the method: as §1
In another test the target is Gal(b1-3)GlcNAc(b1-2)Man. The gist of the method: as §1
In test [8] the target is Gal(b1-3)GlcNAc(b1-2)Man(a1-3)[Gal(b1-3)GlcNAc(b1-2)Man(a1-6)]Man(b1-4)GlcNAc(b1-4)GlcNAc. In short, it runs like this: as §1
Test [9] addresses Gal(b1-3)GlcNAc(b1-2)Man(a1-3)[Gal(b1-3)GlcNAc(b1-2)Man(a1-6)]Man(b1-4)GlcNAc(b1-4)[Fuc(a1-6)]GlcNAc. The gist of the method:
as §1

In test [10] the target is Gal(b1-3)GlcNAc(b1-2)Man(a1-3)[GlcNAc(b1-4)][Gal(b1-3)GlcNAc(b1-2)Man(a1-6)]Man(b1-4)GlcNAc(b1-4)GlcNAc. In short, it runs like this:
as §1

Test [11] addresses Gal(b1-3)GlcNAc(b1-2)[Gal(b1-3)GlcNAc(b1-6)]Man(a1-6)[Gal(b1-3)GlcNAc(b1-2)Man(a1-3)]Man(b1-4)GlcNAc(b1-4)GlcNAc. The gist of the method: as §1
For test [12], the target named is Gal(b1-3)GlcNAc(b1-3)Gal(b1-3)GlcNAc. In short, it runs like this:
as §1

The target in test [13] is Gal(b1-3)GlcNAc(b1-3)Gal(b1-4)Glc. The gist of the method: as §1
Test [14] deals with Gal(b1-3)GlcNAc(b1-3)Gal(b1-4)GlcNAc. The gist of the method: as §1
The target in test [15] is Gal(b1-3)GlcNAc(b1-3)Gal(b1-4)GlcNAc(b1-2)Man(a1-3)[Gal(b1-3)GlcNAc(b1-3)Gal(b1-4)GlcNAc(b1-2)Man(a1-6)]Man(b1-4)GlcNAc(b1-4)GlcNAc. In short, it runs like this:
as §1

Test [16] has as its target Gal(b1-3)GlcNAc(b1-3)Gal(b1-4)GlcNAc(b1-2)[Gal(b1-3)GlcNAc(b1-3)Gal(b1-4)GlcNAc(b1-6)]Man(a1-6)[Gal(b1-3)GlcNAc(b1-3)Gal(b1-4)GlcNAc(b1-2)Man(a1-3)]Man(b1-4)GlcNAc(b1-4)[Fuc(a1-6)]GlcNAc. In short, it runs like this:
as §1

In test [17] the target is Gal(b1-3)GlcNAc(b1-3)Gal(b1-4)GlcNAc(b1-3)Gal(b1-4)GlcNAc(b1-2)[Gal(b1-3)GlcNAc(b1-3)Gal(b1-4)GlcNAc(b1-3)Gal(b1-4)GlcNAc(b1-6)]Man(a1-6)[Gal(b1-3)GlcNAc(b1-3)Gal(b1-4)GlcNAc(b1-3)Gal(b1-4)GlcNAc(b1-2)Man(a1-3)]Man(b1-4)GlcNAc(b1-4)[Fuc(a1-6)]GlcNAc. The gist of the method: as §1
The target in test [18] is Gal(b1-3)GlcNAc(b1-3)Gal(b1-4)GlcNAc(b1-6)[Gal(b1-3)GlcNAc(b1-3)]Gal(b1-4)Glc. The gist of the method:
as §1

Test [19] addresses Gal(b1-3)GlcNAc(b1-3)Gal(b1-4)[Fuc(a1-3)]GlcNAc. The gist of the method: as §1
Test [20] addresses Gal(b1-3)GlcNAc(b1-3)Gal(b1-4)[Fuc(a1-3)]GlcNAc(b1-6)[Gal(b1-3)GlcNAc(b1-3)]Gal(b1-4)Glc. The gist of the method:
as §1

Some of the results follow.

B1: ECA (Erythrina cristagalli), P83410 (protein)
chain: VETISFSFSEFEPGNDNLTLQGAALITQSGVLQLTKINQNGMPAWDSTGRTLYTKPVHMWDSTTGTVASFETRFSFSIEQPYTRPLPADGLVFFMGPTKSKPAQGYGYLGVFNNSKQDNSYQTLAVEFDTFSNPWDPPQVPHIGIDVNSIRSIKTQPFQLDNGQVANVVIKYDAPSKILHVVLVYPSSGAIYTIAEIVDVKQVLPDWVDVGLSGATGAQRDAAETHDVYSWSFQASLPE
Regarding B1, the “glycan array binding signal (z-score)” value in test [1] is -0.784; in test [2] it was -0.421; with Gal(b1-3)GalNAc(b1-3)Gal it was -0.426; in test [3], -0.259; in test [4], -0.205; in [5], -0.291. For the same molecule, the “glycan array binding signal (z-score)” value was -0.27 in the test with Gal(b1-3)GlcNAc; -0.509 in test [6]; -0.325 in test [7]; -0.482 in the test with Gal(b1-3)GlcNAc(b1-2)Man; -0.026 in test [8]; -0.061 in [9]. In addition, the “glycan array binding signal (z-score)” value in [10] is 0.824; in test [11], -0.282; in [12], -0.393; in test [13] it was -0.239; in [14], -0.251; in [15] it was -0.444. The “glycan array binding signal (z-score)” value was 0.845 in test [16]; 0.723 in test [17]; -0.076 in test [18]; 0.048 in [19]; -0.407 in test [20].
